Test results from the supplement of paper PMC3334620.
In all, about 33,000 sequences were measured (“E-score (-0.5 to 0.5)”: median about -0.054, highest 2% from about 0.39 on). This is one part of the list.

Target: Ylr278c (UniProt Q05854)
Experiment: PBM E-score (8-mer binding enrichment) (E-score (-0.5 to 0.5)); higher = stronger / more preferred TF binding; most listed sequences are background and not binding sites
Settings: protein concentration: 200 nM; construct: GST-DNA-binding domain
Procedure, shortened: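 Masliner-normalised scans of fluorescent anti-GST signal were the basis for scoring. That signal came from GST-tagged yeast transcription factors applied at about 100-200 nM to double-stranded universal all-10-mer Agilent arrays on fresh or once-stripped slides. Each ungapped eight-base word, pooled with its reverse complement, received an E-score from the Universal PBM Analysis Suite.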

| Sequence | PBM E-score |
| --- | --- |
| ATCTTCAG | 0.0375 |
| AAATTGGT | 0.0898 |
| CACCTTGG | -0.0141 |
| GCAGGCTA | -0.17 |
| ACGTGGGC | -0.0953 |
| CTGCCGGA | 0.355 |
| CTACCTAC | 0.0201 |
| CACAGGTA | -0.157 |
| AACTACTT | -0.0821 |
| CAAGCGGG | 0.186 |
| GGGGTCAC | -0.0137 |
| AGAAATTA | 0.0733 |
| AGAGGAGA | -0.262 |
| CAACGAAC | 0.0587 |
| CTGCCGGC | 0.347 |
| GTGGAACA | 0.0188 |
| GAAACAGA | -0.0894 |
| TACCCACA | -0.0145 |
| TCTCCCCA | -0.00356 |
| ATGCCGGA | 0.456 |
| GGCCGGTA | 0.261 |
| TAAGGGTA | -0.315 |
| CAATAACC | 0.0651 |
| ACCCTTCA | -0.132 |
| CCTTATAG | -0.296 |

| Sequence | PBM E-score |
| --- | --- |
| TAGATTGA | 0.0387 |
| ACTAAGCC | 0.0973 |
| CCATATCG | 0.199 |
| TCGTGACA | -0.0361 |
| CCCCCGGG | 0.296 |
| AGCACGGG | 0.066 |
| CATACCTA | -0.117 |
| CAATAGAG | -0.369 |
| ACGTGCCG | 0.138 |
| GGAGCAGA | 0.109 |
| AGAAGGTC | 0.0215 |
| GAGGTGGA | 0.0588 |
| GCCGAGGA | 0.197 |
| ACCGAAGG | 0.0746 |
| AGAAGTAT | 0.00141 |
| CGCGTAGA | -0.0365 |
| TACTAAGA | -0.0701 |
| AAGACTGG | -0.191 |
| CGACAGAG | -0.156 |
| CGAGTCCG | 0.391 |
| CCTCGTCG | 0.139 |
| CAGGGGTC | -0.057 |
| TGGAGCCA | -0.194 |
| AGATAGGC | -0.123 |
| CTGCGGAC | 0.221 |

| Sequence | PBM E-score |
| --- | --- |
| CTAGTTAA | -0.183 |
| AACTCGGC | 0.215 |
| GGGTCCAC | -0.0482 |
| ACTGCAGA | -0.11 |
| ACCACAGC | -0.145 |
| CTGGAAAA | -0.00229 |
| CTTCAGGA | 0.0541 |
| AGTCAAAA | -0.0915 |
| CCAGCATA | -0.163 |
| ACACTTCA | -0.0729 |
| CCTGATAG | -0.273 |
| ATCGGTCC | 0.325 |
| AGAGCTCG | 0.0797 |
| GTCTCGGA | 0.385 |
| AGGCTTGC | -0.199 |
| GGCGCGTA | 0.0388 |
| GATATTCC | 0.293 |
| CCCCCCTA | -0.268 |
| CGCATATA | -0.0195 |
| TATGCACA | -0.2 |
| ACTTTACC | 0.0501 |
| TGGGATAA | -0.00947 |
| TCCTAGGA | 0.0528 |
| ATGATTCC | 0.121 |
| GAGTCGAA | 0.0359 |

| Sequence | PBM E-score |
| --- | --- |
| CTTGACCC | 0.0732 |
| AGATCAGG | -0.213 |
| GTTCTATA | -0.207 |
| CTTCATGC | -0.0885 |
| AGCGTCAC | -0.138 |
| AATGACAT | -0.0594 |
| TAAAGTAA | -0.0915 |
| ACCTCAAG | -0.209 |
| CATTGAAC | 0.0511 |
| ACATCGGT | 0.16 |
| AAGAGCAA | -0.156 |
| CCCATAGA | -0.292 |
| CGCTAAAA | -0.0348 |
| GTGCGCAC | 0.238 |
| ACCGCCAG | 0.146 |
| GAAAGTAA | -0.0679 |
| AAGTGACG | -0.128 |
| CACTAGGG | -0.259 |
| GGACACAC | 0.149 |
| AGTACAAC | 0.075 |
| ACTCAGGG | -0.204 |
| CGAGCGCG | 0.236 |
| CCTAGTTC | -0.182 |
| CAATGCGG | 0.19 |
| AAGTATAG | -0.157 |

| Sequence | PBM E-score |
| --- | --- |
| ACTCGTCG | -0.161 |
| TATTTTCA | -0.0452 |
| AGCTACCT | -0.105 |
| TCTGGGAA | -0.187 |
| ATTGCGAG | 0.0736 |
| AATCGACA | -0.0173 |
| GCCACCAA | -0.0527 |
| CACACCAA | -0.0145 |
| ATGTCATA | -0.0919 |
| GTTCTAGA | 0.0109 |
| CTGCTCCA | -0.218 |
| AGCTTTTG | -0.174 |
| TCGTCGAA | -0.357 |
| GGTCTCCA | -0.103 |
| GAGTCTTA | -0.189 |
| AATTACGA | 0.00325 |
| CCTTGACG | -0.0551 |
| AGAGCGTG | -0.0159 |
| CCATGACC | -0.137 |
| AGCCGCGC | 0.2 |
| CACAAGGG | -0.243 |
| AGGTGGCC | -0.0789 |
| AGTGGGAC | -0.0281 |
| ATAAGTAG | -0.0659 |
| ACACAGGT | -0.306 |

| Sequence | PBM E-score |
| --- | --- |
| CTTATCTA | -0.0407 |
| ATGCGAAA | -0.0354 |
| CCTTCCAG | -0.185 |
| GGCCCGCA | 0.188 |
| AGATGCCA | -0.161 |
| AATGAAGA | -0.09 |
| CGGTATCA | 0.132 |
| CCAACGGG | 0.114 |
| GACGTCCC | 0.0234 |
| AGAACATG | -0.0537 |
| AGGTCGGA | 0.372 |
| TGCTTAAA | -0.112 |
| GCCCTTCA | -0.115 |
| CATGTATC | -0.06 |
| TAAACCAA | -0.11 |
| ATTTACTC | 0.0166 |
| AGCGTAAT | -0.0833 |
| CGGCTGCC | 0.221 |
| AGGATGTG | -0.061 |
| ACGGGCCG | 0.127 |
| TCCAGTCA | -0.128 |
| GATTTAGC | 0.121 |
| GCATGACA | -0.309 |
| ATAGACAT | -0.311 |
| CTTCGGCC | 0.154 |

| Sequence | PBM E-score |
| --- | --- |
| GGAGACCC | 0.112 |
| GATTGCCA | -0.0242 |
| AACCAAAT | -0.0169 |
| CTGCGTTA | -0.211 |
| ATTATGAG | -0.154 |
| ATCCACAG | -0.118 |
| AGTCTTCA | -0.252 |
| AGTAGGGG | 0.0709 |
| AACGAGGC | -0.0577 |
| AAAGTTGT | 0.106 |
| GGCTGTGA | -0.285 |
| GAGCAACC | -0.0653 |
| ATTAGACG | -0.0379 |
| ATTGAATA | -0.0355 |
| CGAACGGC | 0.134 |
| GGCAGTGA | -0.229 |
| AAAAGTTA | -0.175 |
| ACTTTCGA | -0.00487 |
| GCGTACGC | 0.164 |
| AATCGGCA | 0.304 |
| CAAAAGAG | -0.23 |
| CTCACTGA | -0.174 |
| GGGCAGAC | -0.105 |
| CACCGGCC | 0.273 |
| CGATGGAC | 0.0674 |

| Sequence | PBM E-score |
| --- | --- |
| AATTCAAC | 0.0812 |
| CTCCGGAA | 0.479 |
| GACTACGC | -0.0263 |
| ACTATCCG | 0.258 |
| ATATTTGG | -0.189 |
| CCTACAGG | -0.0841 |
| TCTTTCCA | 0.0294 |
| CCAGCCCG | 0.115 |
| ATAACAAG | 0.103 |
| AAAGGTAA | -0.122 |
| TATGATCA | -0.202 |
| AGAGGTAA | -0.0365 |
| GATCCGAA | 0.33 |
| ATGGAACA | -0.272 |
| AGGGAAAC | -0.192 |
| CCCTTAGC | -0.00214 |
| CGTTAAAC | 0.0126 |
| CACTAAAA | 0.0193 |
| GGAAAAGA | 0.112 |
| ATTACGGA | 0.336 |
| AGGATCTA | -0.344 |
| GGCCGCAC | 0.23 |
| GATGTAAA | 0.00024 |
| TCGTAACA | -0.0384 |
| AATCCCGT | 0.346 |

| Sequence | PBM E-score |
| --- | --- |
| GCCGCGCA | 0.21 |
| ACTCAGGA | -0.0886 |
| AAGATCGG | 0.368 |
| GCGGTAAC | 0.17 |
| AAAACGTG | -0.298 |
| GGCCGAAA | 0.254 |
| CTCCTTGC | -0.188 |
| AACGAAGA | -0.101 |
| CCTATGGC | -0.118 |
| AAACGGTC | 0.107 |
| AGAATGGG | 0.00803 |
| AACCGTTG | -0.062 |
| CGTGGACA | 0.0908 |
| ACGGTCGA | 0.0442 |
| CGCATGCG | 0.00582 |
| ACAGGGCC | 0.0175 |
| CTAGGAAC | -0.171 |
| CTACAGCC | -0.0762 |
| AAAACTGC | -0.128 |
